# Measurements taken from PubChem BioAssay AID463173 (ICCB-Longwood Screening Facility, Harvard Medical School, 2010).
# Hit rate of the full screen: of about 52,000 compounds, about 4,300 (8.3%) were called active. Cut-off read from the data, not from the text of the source: active = survival mostly below about 52% (no sharp cut-off); inactive = mostly above about 56%. The list shows a part of the results.
# Test system: DeltatarO mutant
# Assay: growth inhibition of S. aureus wild type versus tarO mutant, primary screen, teichoic acid synthesis inhibitors, RN4220, OD600 (AID 463173)
# Conditions: OD600, 18 h, hits give low values, screened at 18.75 µg/mL (by protocol)
row,Compound,survival
1,COc1ccc(NC(=O)Cn2c(=O)n(Cc3ccco3)c(=O)c3cc(OC)c(OC)cc32)cc1,inactive: 80%
2,CN(C)c1ccc(-c2nc3cnccn3c2Nc2cccc(C(F)(F)F)c2)cc1,inactive: 83%
3,COc1cccc(CNc2nccn(-c3cc(C)cc(C)c3)c2=O)c1,inactive: 91%
4,CCNS(=O)(=O)c1ccc(S(=O)(=O)N(Cc2ccccn2)C2CCCCC2)cc1,inactive: 76%
5,CC(NC(=O)c1c2c(nc3ccccc13)C(=O)N(C1CCCCC1)C2)c1ccccc1 (stereo not drawn),inactive: 69%
6,Cc1ccc(CNC(=O)Cn2c(=O)ccc3cc(S(=O)(=O)N4CCCC4)ccc32)cc1,inactive: 92%
7,CCOc1ccc(S(=O)(=O)c2cn(C)c3ccccc3c2=O)cc1,inactive: 97%
8,O=C1C(Cc2ccccc2)S/C(=N/N=C/c2ccco2)N1c1ccccc1 (stereo not drawn),inactive: 91%
9,Cc1ccc(Cc2cnc(NC(=O)C3Cc4ccc(C)cc4C(=O)O3)s2)cc1 (stereo not drawn),inactive: 91%
10,COC(=O)c1cnn(-c2ccc(C(=O)Nc3ccc(OC(F)(F)F)cc3)cc2)c1N,active: 25%
11,CCc1ccc(NC(=O)CN2CCSc3ccc(S(=O)(=O)N4CCCC4)cc32)cc1,active: -4%
12,COc1ccc(C(CNC(=O)c2cccc([N+](=O)[O-])c2)N2CCOCC2)cc1 (stereo not drawn),inactive: 76%
13,COc1ccc(CCNc2nc(-c3ccc(F)cc3)cc(C(F)(F)F)n2)cc1OC,inactive: 109%
14,Cc1nn(CCCC(=O)NCc2cccc(Cl)c2)c(=O)c2c1sc1ccccc12,inactive: 78%
15,Cc1nnc(NC(=O)CSc2nnc3c(n2)[nH]c2ccccc23)s1,inactive: 61%
16,Cc1cccc(N2CCN(CCCNC(=O)c3sc4ncccc4c3-n3cccc3)CC2C)c1 (stereo not drawn),inactive: 105%
17,CCOC(=O)c1ccccc1NC(=O)c1ccco1,inactive: 97%
18,O=c1n(Cc2ccc(F)cc2)nc2n1-c1cc(Cl)ccc1OC2,inactive: 82%
19,Cc1ccc(F)cc1NC(=O)c1ccc(Cn2nc(N3CCN(c4ccccc4)CC3)ccc2=O)o1,inactive: 117%
20,CCN(C(=O)c1cccn(Cc2ccccc2C)c1=O)c1ccccc1,inactive: 89%
21,CN(C)c1ccc(NC(=O)CN2C(=O)c3ccccc3Sc3ccc(C(=O)N4CCCC4)cc32)cc1,active: -2%
22,Cc1ccc(-c2nc(SCC(=O)N3CCc4ccccc43)c3c(=O)n(C)c(=O)n(C)c3n2)cc1,inactive: 76%

row,Compound,survival
1,COCCCNC(=O)c1c(NC(=O)c2cc(=O)c3ccccc3o2)sc2c1CCCC2,inactive: 110%
2,Cc1ccc(N2CCN(c3c(CN4CCCC4)c(=O)oc4ccccc34)CC2)c(C)c1,inactive: 67%
3,O=C(NCc1ccccc1)c1ccc2c(c1)N(Cc1cccc(Cl)c1)C(=O)c1ccccc1S2(=O)=O,inactive: 93%
4,CCOC(=O)C1CCC(CN(Cc2c(Cl)cccc2Cl)S(=O)(=O)c2ccc(Cl)cc2)CC1 (stereo not drawn),inactive: 81%
5,CCn1ccc2cc(S(=O)(=O)N3CCC(C(=O)NCc4ccc(OC)cc4)CC3)ccc21,active: 20%
6,Cc1ccc2nc(-c3ccc(Cl)c(NC(=O)c4cccc([N+](=O)[O-])c4C)c3)oc2c1,inactive: 126%
7,Cc1ccccc1CN1C(=O)c2ccccc2Sc2ccc(C(=O)OCc3ccco3)cc21,inactive: 85%
8,CCOc1ccccc1CNC(=O)c1cnc2c(-c3ccc(OCC)c(OCC)c3)c(C)nn2c1C,inactive: 82%
9,COc1ccc(NC(=O)C2CCN(c3nc4ccccc4nc3C(F)(F)F)CC2)cc1,inactive: 124%
10,Cc1cc(NC(=O)C2CCCCC2)no1,inactive: 95%
11,COc1ccc(-c2cn3nc(N4CCC(C(=O)Nc5ccc(Cl)cc5C)CC4)sc3n2)cc1,inactive: 71%
12,Cc1oc(-c2ccc(C(=O)NCCc3ccc(Cl)cc3)cc2)nc1CSc1ccccc1,inactive: 83%
13,COc1ccc(-n2nc(C(=O)NCCc3ccc(OC)c(OC)c3)c3c4ccccc4n(C)c3c2=O)cc1Cl,inactive: 95%
14,O=C(Cn1cc(SCc2ccccc2)c2ccccc21)N1CCCCCC1,inactive: 83%
15,Cn1c(=O)c(=O)n(C)c2cc(S(=O)(=O)CCC(=O)Nc3cccc(C(F)(F)F)c3)ccc21,inactive: 80%
16,COc1cc(OC)c(N(C)C(=O)C2CCCN(c3ncnc4c3nc3n4CCCCC3)C2)cc1Cl (stereo not drawn),inactive: 67%
17,Cc1ccc(-c2nc3c(cnn3-c3ccccc3)c(=O)n2-c2cccc(Cl)c2)cc1,active: 33%
18,CN(C)S(=O)(=O)c1ccc2c(c1)N(CC(=O)N1CCN(c3cccc(Cl)c3)CC1)CCS2,inactive: 96%
19,O=C(N1CCOCC1)N1CCN(c2ccccc2)CC1,inactive: 88%
20,O=C1N/C(=N/N=C\c2ccco2)SC1Cc1cccc(C(F)(F)F)c1 (stereo not drawn),inactive: 56%
21,Cc1onc(-c2ccccc2)c1C(=O)Nc1ccc(S(=O)(=O)Nc2ncccn2)cc1,inactive: 78%
22,COc1cc(NC(=O)Nc2nnc(N3CCCCCC3)s2)cc(OC)c1,inactive: 80%

row,Compound,survival
1,CC1CCCN(Cc2c(O)ccc3c(=O)c(Oc4ccc(C(C)(C)C)cc4)c(C(F)(F)F)oc23)C1 (stereo not drawn),active: 17%
2,O=C(CCSc1nnc(-c2ccco2)o1)N1CCOCC1,inactive: 87%
3,COc1cc(/C=C/c2nc3cc(Cl)ccc3c(=O)n2-c2cccc(C(F)(F)F)c2)cc(OC)c1OC,inactive: 96%
4,COc1ccc(-c2c(C#N)c(N)nc(OC)c2C#N)cc1,inactive: 84%
5,O=C(COCc1cc(-c2ccco2)on1)Nc1cccc(O)c1,inactive: 78%
6,Cc1cc(C)cc(NC(=O)C(=O)NCCCN2CCOCC2)c1,inactive: 80%
7,Cc1ccc2cc3cc(C(=O)N4CCN(c5ccccc5)CC4)oc3nc2c1,inactive: 61%
8,O=c1c(N2CCN(c3cccc(Cl)c3)CC2)csc2ccccc12,inactive: 68%
9,CCc1nn(CC(=O)NCc2ccccc2Cl)c(=O)c2cc3ccccc3n12,inactive: 62%
10,CCOc1ccc(CN(C(=O)c2nc(SC)ncc2Cl)C2CCS(=O)(=O)C2)cc1 (stereo not drawn),inactive: 88%
11,CC(C)CNCC1OCc2ccccc2CO1,inactive: 98%
12,O=C(Nc1nc2ccc(S(=O)(=O)N3CCCC3)cc2s1)c1ccc(F)cc1,inactive: 70%
13,C/C(CC1CC(COCCC(C)C)OC1=O)=N\NC(N)=S (stereo not drawn),inactive: 88%
14,CCc1ccc(Oc2c(C(F)(F)F)oc3c(CN4CCN(CC)CC4)c(O)ccc3c2=O)cc1,inactive: 78%
15,CC1CCCCN1CCCNC(=O)c1ccc2c(c1)sc1nc(-c3ccc(F)cc3)cn12 (stereo not drawn),active: 29%
16,CCOc1ccccc1CNC(=O)c1cn(-c2ccc(OC)cc2)c(=O)c2ccccc12,inactive: 106%
17,CN1CCN(C(=O)CCCC(=O)O)CC1,inactive: 75%
18,COc1cccc(CNC(=O)CSc2n[nH]c(-c3ccccc3Cl)n2)c1OC,inactive: 118%
19,COc1cccc(C2=C(C(C)=O)Sc3nnc(C4CCCCC4)n3N2C(C)=O)c1,inactive: 81%
20,CCOc1ccc(NC(=O)[C@H]2O[C@@H]3OC(C)(C)O[C@@H]3[C@H]3OC(C)(C)O[C@H]32)cc1,inactive: 99%
21,Cc1cccc(NC(=O)CSc2nc(=O)n(Cc3ccco3)c3c2CCC3)c1C,inactive: 72%
22,CCOC(=O)c1c(NC=O)sc2c1CCCC2,inactive: 66%

row,Compound,survival
1,CC(C)c1cc(C(=O)NC(C)c2ccccc2)no1 (stereo not drawn),inactive: 50%
2,Cc1cc(C)cc(NC(=O)Cn2nnc(C(=O)NCc3ccccc3Cl)c2N)c1,inactive: 72%
3,COc1ccc(CCNC(=O)c2cc3c(s2)-c2c(C)cccc2OC3)c(OC)c1,inactive: 85%
4,CCOc1ccc(C(=O)Nc2ccccc2C(=O)OCc2cc(=O)n3nc(C4CC4)sc3n2)cc1,inactive: 95%
5,Cc1cccc2c1-c1sc(C(=O)NCc3ccc(Cl)cc3)cc1CO2,inactive: 89%
6,Cc1cccc(N2CC(c3nc4ccccc4n3CCC3CCCCC3)CC2=O)c1 (stereo not drawn),active: 31%
7,Cc1ccc(-c2nc(S(=O)(=O)c3ccc(C)cc3)c(SCC(=O)Nc3ccc(F)cc3)o2)cc1,inactive: 58%
8,CCN(Cc1ccccc1)C(=O)c1cc2c(=O)oc3ccc(C)cc3c2s1,inactive: 82%
9,CCOC(=O)c1noc2ncnc(N3CCN(c4cccc(Cl)c4)CC3)c12,inactive: 83%
10,CCOC(=O)N1CCc2c(sc3c2c(=O)n(-c2ccc(Cl)cc2)c(=O)n3Cc2cccc(OC)c2)C1,inactive: 109%
11,COc1ccc(-c2nc3nc(C)cc(N4CCN(c5cccc(C(F)(F)F)c5)CC4)n3n2)cc1,inactive: 45%
12,COCCCNC(=O)c1ccc(Cn2c(=O)c3ccccc3n(CC(=O)Nc3ccc(C)cc3C)c2=O)cc1,inactive: 96%
13,Cc1nc2ccc(S(=O)(=O)NC(C(=O)N3CCN(c4ccc(Cl)cc4)CC3)C(C)C)cc2s1 (stereo not drawn),inactive: 60%
14,CCc1ccc(NC(=O)Cc2csc(COc3cccc(C)c3)n2)cc1,inactive: 88%
15,CCn1c(=O)cc(SCC(=O)NCCc2cccc(C)c2)c2ccccc21,inactive: 69%
16,O=S(=O)(c1ccc2[nH]c3c(c2c1)CCCC3)N1CCN(c2cccc(C(F)(F)F)c2)CC1,inactive: 72%
17,Cc1cc(C)cc(Nc2nc3ccccc3n3cnnc23)c1,inactive: 79%
18,COc1cc(C2N=C(N)Nc3nc4ccccc4n32)ccc1OCC(=O)O (stereo not drawn),inactive: 91%
19,COc1ccc(NC(=O)Nc2cccc(OCc3cc(=O)n4cccc(C)c4n3)c2)c(OC)c1,inactive: 88%
20,COCCn1c(C)cc(O)c(C(c2ccc(Cl)cc2)N2CCN(c3ccccc3)CC2)c1=O (stereo not drawn),inactive: 70%
21,CCCCCSc1nnc2c(n1)OC(CC)Nc1ccc(Br)cc1-2 (stereo not drawn),inactive: 63%
22,CCC(=O)Nc1ccccc1-c1nc2ccccc2n(C(C)C(=O)Nc2cccc(Cl)c2C)c1=O (stereo not drawn),active: 42%
